The other results are listed elsewhere or left out. The full chains were built here from the parent and the listed change. Inactive controls read about 0.05.
B1: TEV protease; numbered along this chain (parent)
chain: MGESLFKGPRDYNPISSSICHLTNESDGHTTSLYGIGFGPFIITNKHLFRRNNGTLVVQSLHGVFKVKDTTTLQQHLVDGRDMIIIRMPKDFPPFPQKLKFREPQREERICLVTTNFQTKSMSSMVSDTSCTFPSGDGIFWKHWIQTKDGQCGSPLVSTRDGFIVGIHSASNFTNTNNYFTSVPKNFMELLTNQEAQQWVSGWRLNADSVLWGGHKVFMVKPEEPFQPVKEATQL

Variants of: B1
Experiment: raw area under fraction-flipped curve 0-4 h after induction (AUC4h, not background-subtracted), DNA-recorder readout of cleavage of the substrate (dimensionless); higher = more cleavage of the substrate by the protease variant
Conditions: temperature: 34 °C; time window: 0-4 h after rhamnose induction
Experimental: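 In vivo DNA recorder in E. coli TOP10(DE3) ΔrhaA at 34 °C. Each TEVp single-site mutant (parent TEVp 0) is paired with a single-site variant of the 7-mer TEVs (canonical ENLYFQ|S). The substrate sits between flexible linkers in a Bxb1-sfGFP-TEVs-SsrA fusion, so cleavage stabilises Bxb1 and speeds flipping of a recombination array, read by NGS. The value is the raw area under the fraction-flipped curve over 0-4 h after rhamnose induction (AUC4h), with ≥20 reads per time point. It is not background-subtracted; inactive controls average about 0.047.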
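Also: Bxb1 expression induced with 0.2% (w/v) L-rhamnose at OD600 near 0.5, cultures sampled hourly, flipped fraction per protease–substrate barcode pair counted by paired-end Illumina sequencing.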

Row | Variant | area with substrate ENAYFQS | area with substrate ENEYFQS | area with substrate ENFYFQS | area with substrate ENGYFQS | area with substrate ENHYFQS | area with substrate ENKYFQS | area with substrate ENNYFQS | area with substrate ENQYFQS | area with substrate ENRYFQS | area with substrate ENSYFQS | area with substrate ENTYFQS | area with substrate ENVYFQS | area with substrate ENWYFQS | area with substrate ENCYFQS | area with substrate ENDYFQS | area with substrate ENIYFQS | area with substrate ENMYFQS | area with substrate ENPYFQS | area with substrate ENYYFQS
1 | MGESLFKGPRDYNPISSSICHLTNESDGHTTSLYGIGFGPFIITNKHLFRRNNGTLVVQSLHGVFKVKDTTTLQQHLVDGRDMIIIRMPKDFPPFPQKLKFREPQREERICLVTTNFQTKSMSSMVSDTSCTFPSGDGIFWKCWIQTKDGQCGSPLVSTRDGFIVGIHSASNFTNTNNYFTSVPKNFMELLTNQEAQQWVSGWRLNADSVLWGGHKVFMVKPEEPFQPVKEATQL [H143C] | 0.0634 | 0.0499 | 0.0669 | 0.035 | 0.0651 | 0.0639 | 0.0451 | 0.0593 | 0.0768 | 0.0591 | 0.0687 | 0.0638 | 0.0354 | – | – | – | – | – | –
2 | MGESLFKGPRDYNPISSSICHLTNESDGHTTSLYGIGFGPFIITNKHLFRRNNGTLVVQSLHGVFKVKDTTTLQQHLVDGRDMIIIRMPKDFPPFPQKLKFREPQREERICLVTTNFQTKSMSSMVSDTSCTFPSGDGIFWKAWIQTKDGQCGSPLVSTRDGFIVGIHSASNFTNTNNYFTSVPKNFMELLTNQEAQQWVSGWRLNADSVLWGGHKVFMVKPEEPFQPVKEATQL [H143A] | 0.058 | 0.0632 | 0.0618 | 0.0717 | 0.0574 | – | 0.0771 | 0.0627 | 0.0636 | 0.0623 | 0.0647 | 0.0674 | – | 0.0579 | 0.0646 | 0.0798 | 0.0634 | 0.0491 | 0.0616
3 | MGESLFKGPRDYNPISSSICHLTNESDGHTTSLYGIGFGPFIITNKHLFRRNNGTLVVQSLHGVFKVKDTTTLQQHLVDGRDMIIIRMPKDFPPFPQKLKFREPQREERICLVTTNFQTKSMSSMVSDTSCTFPSGDGICWKHWIQTKDGQCGSPLVSTRDGFIVGIHSASNFTNTNNYFTSVPKNFMELLTNQEAQQWVSGWRLNADSVLWGGHKVFMVKPEEPFQPVKEATQL [F140C] | 0.0613 | 0.0693 | 0.0621 | 0.0058 | 0.0568 | – | 0.064 | 0.0779 | 0.0593 | 0.0646 | 0.0308 | 0.0413 | 0.064 | – | 0.0582 | 0.0934 | 0.0623 | 0.0757 | 0.0555
4 | MGESLFKGPRDYNPISSSICHLTNESDGHTTSLYGIGFGPFIITNKHLFRRNNGTLVVQSLHGVFKVKDTTTLQQHLVDGRDMIIIRMPKDFPPFPQKLKFREPQREERICLVTTNFQTKSMSSMVSDTSCTFPSGDGIFWTHWIQTKDGQCGSPLVSTRDGFIVGIHSASNFTNTNNYFTSVPKNFMELLTNQEAQQWVSGWRLNADSVLWGGHKVFMVKPEEPFQPVKEATQL [K142T] | 0.0463 | – | 0.0596 | 0.0681 | 0.0606 | 0.0578 | 0.0663 | 0.0659 | 0.0671 | 0.0865 | 0.0604 | 0.0671 | – | 0.065 | 0.0561 | 0.105 | 0.0741 | 0.0422 | 0.0815
5 | MGESLFKGPRDYNPISSSICHLTNESDGHTTSLYGIGFGPFIITNKHLFRRNNGTLVVQSLHGVFKVKDTTTLQQHLVDGRDMIIIRMPKDFPPFPQKLKFREPQREERICLVTTNFQTKSMSSMVSDTSCTFPSGDGIFWEHWIQTKDGQCGSPLVSTRDGFIVGIHSASNFTNTNNYFTSVPKNFMELLTNQEAQQWVSGWRLNADSVLWGGHKVFMVKPEEPFQPVKEATQL [K142E] | 0.0628 | 0.0602 | 0.0603 | 0.0682 | 0.0448 | 0.0625 | 0.0687 | 0.0615 | 0.0621 | 0.0613 | – | 0.0678 | 0.0082 | 0.0678 | 0.059 | – | 0.0544 | – | 0.0424
6 | MGESLFKGPRDYNPISSSICHLTNESDGHTTSLYGIGFGPFIITNKHLFRRNNGTLVVQSLHGVFKVKDTTTLQQHLVDGRDMIIIRMPKDFPPFPQKLKFREPQREERICLVTTNFQTKSMSSMVSDTSCTFPSGDGIFWSHWIQTKDGQCGSPLVSTRDGFIVGIHSASNFTNTNNYFTSVPKNFMELLTNQEAQQWVSGWRLNADSVLWGGHKVFMVKPEEPFQPVKEATQL [K142S] | 0.065 | 0.0654 | – | 0.106 | – | 0.0652 | 0.0635 | 0.0671 | 0.0931 | 0.06 | 0.0612 | 0.0832 | – | 0.0777 | 0.0632 | 0.11 | 0.08 | 0.0626 | 0.0587
7 | MGESLFKGPRDYNPISSSICHLTNESDGHTTSLYGIGFGPFIITNKHLFRRNNGTLVVQSLHGVFKVKDTTTLQQHLVDGRDMIIIRMPKDFPPFPQKLKFREPQREERICLVTTNFQTKSMSSMVSDTSCTFPSGDGIFWFHWIQTKDGQCGSPLVSTRDGFIVGIHSASNFTNTNNYFTSVPKNFMELLTNQEAQQWVSGWRLNADSVLWGGHKVFMVKPEEPFQPVKEATQL [K142F] | 0.0489 | 0.0628 | – | 0.0598 | 0.0567 | – | 0.0444 | 0.0586 | 0.0514 | – | 0.0577 | 0.0852 | – | – | 0.0582 | 0.0974 | 0.0806 | – | 0.0753
8 | MGESLFKGPRDYNPISSSICHLTNESDGHTTSLYGIGFGPFIITNKHLFRRNNGTLVVQSLHGVFKVKDTTTLQQHLVDGRDMIIIRMPKDFPPFPQKLKFREPQREERICLVTTNFQTKSMSSMVSDTSCTFPSGDGIFMKHWIQTKDGQCGSPLVSTRDGFIVGIHSASNFTNTNNYFTSVPKNFMELLTNQEAQQWVSGWRLNADSVLWGGHKVFMVKPEEPFQPVKEATQL [W141M] | 0.0548 | 0.0515 | 0.0568 | – | – | – | 0.0662 | 0.0531 | 0.0606 | 0.0581 | 0.0432 | 0.0674 | – | 0.0568 | 0.0591 | 0.0713 | – | 0.0605 | 0.0533
